# In PubChem BioAssay AID2675 (National Center for Advancing Translational Sciences (NCATS), 2010):
# In all, about 280,000 compounds went through this assay and about 100 (0.036%) were called active. The shares of active, inactive and inconclusive entries below differ from those in the screen. The call rests on the fitted dose curve; in most records, active means well fitted inhibition curve with a large enough effect in the signal ratio, with a control signal flat (not every such curve was filed as active); inconclusive means small, poorly fitted or top-dose-only effect, or effect the other way, or a change in a side signal; inactive means no such curve, though single readings can be large or run the other way; the % refers to the signal ratio. Potencies beside an inconclusive call are fits to weak or partial responses and may not hold up. “Side channel” marks fits to a control or component signal instead of the main read-out.
# Target: Muscleblind-like protein 1 (Homo sapiens) (UniProt Q9NR56)
# Chain of UniProt Q9NR56 (Q9NR56 whole entry, looked up): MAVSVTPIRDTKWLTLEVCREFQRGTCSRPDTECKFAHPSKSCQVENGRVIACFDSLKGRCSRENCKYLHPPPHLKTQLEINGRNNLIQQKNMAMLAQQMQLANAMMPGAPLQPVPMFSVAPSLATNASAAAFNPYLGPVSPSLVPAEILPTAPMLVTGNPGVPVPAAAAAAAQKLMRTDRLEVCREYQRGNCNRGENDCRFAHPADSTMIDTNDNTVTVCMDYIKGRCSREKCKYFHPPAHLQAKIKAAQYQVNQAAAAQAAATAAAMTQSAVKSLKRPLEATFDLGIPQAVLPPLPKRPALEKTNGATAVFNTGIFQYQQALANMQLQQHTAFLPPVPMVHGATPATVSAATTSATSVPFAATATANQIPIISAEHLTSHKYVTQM
# Experiment: qHTS Assay for Inhibitors of MBNL1-poly(CUG) RNA binding
# Conditions: TR-FRET MBNL1-His/biotin-(CUG)12 binding, 665/545 ratio; activity change, negative = inhibition: at 57.5 µM (top of the series)
# Summary of the method: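 TR-FRET between His-tagged MBNL1 and biotin-(CUG)12 RNA, detected with Tb anti-His antibody (0.055 ng/ul) and streptavidin-XL665 (5 nM), 60 min at room temperature. Compounds titrated 92 nM to 58 uM; 665/545 nm ratio normalized to buffer and complex controls.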
# On the % scale 0 is the no-effect control and ±100 the full control effect; potency means the concentration at half of the fitted maximal effect; tags describe the fitted curve by direction and shape or compound fluorescence and quenching.
Structure (SMILES),"activity change, negative = inhibition",Potency
CCc1ccc(CNC(=O)C2CCN(S(=O)(=O)N3CCC(C)CC3)CC2)cc1,inactive: -0.807%,–
COCCn1c(=S)[nH]c2cc(C(=O)N3CC(C)CC(C)C3)ccc2c1=O (centres undefined),inactive: 1.1%,–
O=C1c2ccccc2C(=O)N1c1nc(-c2cccs2)cs1,–,"inconclusive: 17.8 µM [quencher, side channel, partial curve]"
C/C(=N\NC(=O)c1cc(-c2cccc([N+](=O)[O-])c2)n[nH]1)c1ccc(F)cc1,–,"inconclusive: 12.6 µM [quencher, side channel, partial curve]"
COc1ccc(/C=C2\C(=O)ON=C2c2ccccc2)cc1OC,inactive: 2.5%,–
CCN(CC)c1ccc(NC(=O)Cn2cc3c(n2)CCC(C)C3)c(C)c1 (centres undefined),inactive: -9.27%,–
CCC(=O)Nc1ccc(C2C(=O)c3ccccc3C2=O)cc1,–,"inconclusive: 35.5 µM [quencher, side channel, partial curve]"
O=C(O)c1cc(S(=O)(=O)NC(Cc2c[nH]c3ccccc23)C(=O)O)ccc1Cl (centres undefined),–,"inconclusive: 39.8 µM [fluorescent, side channel, single point]"
C/C(=N\NC(=O)OC(C)(C)C)c1cccc([N+](=O)[O-])c1,–,"inconclusive: 12.6 µM [quencher, side channel, partial curve]"
COc1cc(C(C[N+](=O)[O-])c2c(-c3ccccc3)cc3ccccn23)cc(OC)c1OC (centres undefined),–,"inconclusive: 39.8 µM [quencher, side channel, single point]"
Cc1cc(C)nc(/N=C(\N)Nc2ccc(C)c([N+](=O)[O-])c2)n1,–,"inconclusive: 25.1 µM [quencher, single point]"
O=C(CN1CCCCC1)N/N=C/c1ccccc1OCc1ccccc1,inactive: -19% [at 11.5 µM],–
O=c1c2ccccc2nc(/C=C/c2ccc([N+](=O)[O-])o2)n1CCCO,–,"inconclusive: 8.91 µM [quencher, side channel, partial curve]"
CN1CCCN(C(=O)c2cc3c(s2)CCCC3)CC1,inactive: 2.14%,–
Cc1ccc(S(=O)(=O)NC(=O)Nc2ccc(N(C)C)cc2)cc1,–,"inconclusive: 14.1 µM [quencher, side channel, partial curve]"
Cc1ccc(S(=O)(=O)N(C)C)cc1NC(=O)c1cc(-c2ccco2)nc2ccccc12,–,"inconclusive: 31.6 µM [quencher, side channel, single point]"
Cc1ccc(CCNC(=O)Cn2ncc3c([nH]c4ccccc43)c2=O)cc1,inactive: 3.06%,–
CC(C)CNC(=O)c1noc2c1CCCC2,–,"inconclusive: 3.98 µM [quencher, side channel, full curve]"
O=C(COc1ccccc1[N+](=O)[O-])Nc1cccc(Cl)c1N1CCOCC1,inactive: 10.2%,–
Cc1nnc(NC(=O)c2cc(-c3ccncc3)nc3c(C)cccc23)s1,–,"inconclusive: 17.8 µM [quencher, side channel, partial curve]"

Structure (SMILES),"activity change, negative = inhibition",Potency
CC(=O)Nc1ccc(C(=O)Nc2nc(-c3cccnc3)cs2)cc1,inactive: -8.68%,–
CCn1cc(CNC(=O)c2cc([N+](=O)[O-])c(C)c([N+](=O)[O-])c2)cn1,–,"inconclusive: 12.6 µM [quencher, side channel, partial curve]"
COc1cccc(OC)c1C(=O)Nc1ccc([N+](=O)[O-])cn1,–,"inconclusive: 0.794 µM [quencher, side channel, full curve]"
COc1ccc(C(=O)C[n+]2cccc3cc(OC)ccc32)cc1,–,"inconclusive: 12.6 µM [quencher, side channel, partial curve]"
CCOCCCNC(=O)c1cc2cc3cc(OC)ccc3nc2o1,–,"inconclusive: 14.1 µM [quencher, side channel, partial curve]"
COc1ccc(/C=C/C(=O)N2CCC(C(N)=O)CC2)cc1S(=O)(=O)N1CCOCC1,–,"inconclusive: 25.1 µM [quencher, side channel, single point]"
O=C(O)CC(CNS(=O)(=O)c1cccc2nsnc12)c1ccccc1 (centres undefined),–,"inconclusive: 11.2 µM [quencher, side channel, partial curve]"
CCCCC(=O)NC(=S)NNC(=O)CC,–,"inconclusive: 3.55 µM [quencher, side channel, partial curve]"
CC(=O)Oc1ccc(C)cc1N1C(=O)c2ccc(C(=O)O)cc2C1=O,–,"inconclusive: 20 µM [quencher, side channel, partial curve]"
O=C(Nc1ccc(N2CCN(C(=O)c3ccco3)CC2)cc1)c1ccc([N+](=O)[O-])cc1Cl,–,"inconclusive: 3.98 µM [quencher, side channel, partial curve]"
Cc1scc(C(=O)N/N=C/c2ccco2)c1C,–,"inconclusive: 3.55 µM [quencher, side channel, full curve, poor fit]"
CCN(CC)CCOC(=O)c1ccc(NC(=O)C(C)NC(=O)C23CC4CC(CC(C4)C2)C3)cc1 (centres undefined),–,"inconclusive: 39.8 µM [quencher, side channel, single point]"
O=C(C1CCN(S(=O)(=O)c2cnc[nH]2)CC1)N1CCN(c2ccc([N+](=O)[O-])cc2)CC1,–,"inconclusive: 10 µM [quencher, side channel, partial curve]"
Cc1ccc(NC(=O)C2=CC(c3cccs3)=NS(=O)(=O)N2C)cc1,–,"inconclusive: 17.8 µM [quencher, side channel, partial curve]"
CN(C)/C=C1/NC(=S)NC1=O,–,"inconclusive: 35.5 µM [quencher, side channel, single point]"
Cc1ccc(CS(=O)Cc2ccc(C(=O)NC3CCCC(C)C3C)o2)cc1 (centres undefined),inactive: 0.122%,–
Cc1cc(NC(=O)CSc2nnc(-c3ccc([N+](=O)[O-])cc3)o2)no1,–,"inconclusive: 2.82 µM [quencher, side channel, full curve]"
CC(C)C(OC(=O)c1nsc(Cl)c1Cl)C(=O)NCC1CCCO1 (centres undefined),inactive: 0.48%,–
Cc1cc([N+](=O)[O-])ccc1N(C)C,–,"inconclusive: 39.8 µM [quencher, side channel, single point]"
